In the supplement of paper PMC12217912:
The list shows a part of the results. The full chains were built here from the parent and the listed change. Values near 0.05 are background.

B1: TEV protease; numbered along this chain (parent)
chain: MGESLFKGPRDYNPISSSICHLTNESDGHTTSLYGIGFGPFIITNKHLFRRNNGTLVVQSLHGVFKVKDTTTLQQHLVDGRDMIIIRMPKDFPPFPQKLKFREPQREERICLVTTNFQTKSMSSMVSDTSCTFPSGDGIFWKHWIQTKDGQCGSPLVSTRDGFIVGIHSASNFTNTNNYFTSVPKNFMELLTNQEAQQWVSGWRLNADSVLWGGHKVFMVKPEEPFQPVKEATQL

Variants of: B1
Test: raw area under fraction-flipped curve 0-4 h after induction (AUC4h, not background-subtracted), DNA-recorder readout of cleavage of the substrate (dimensionless); higher = more cleavage of the substrate by the protease variant
Settings: temperature: 34 °C; time window: 0-4 h after rhamnose induction
Procedure: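 In vivo DNA recorder in E. coli TOP10(DE3) ΔrhaA at 34 °C. Each TEVp single-site mutant (parent TEVp 0) is paired with a single-site variant of the 7-mer TEVs (canonical ENLYFQ|S). The substrate sits between flexible linkers in a Bxb1-sfGFP-TEVs-SsrA fusion, so cleavage stabilises Bxb1 and speeds flipping of a recombination array, read by NGS. The value is the raw area under the fraction-flipped curve over 0-4 h after rhamnose induction (AUC4h), with ≥20 reads per time point. It is not background-subtracted; inactive controls average about 0.047.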
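Also: Bxb1 expression induced with 0.2% (w/v) L-rhamnose at OD600 near 0.5, cultures sampled hourly, flipped fraction per protease–substrate barcode pair counted by paired-end Illumina sequencing.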

| Variant | area with substrate ENLYFAS | area with substrate ENLYFCS | area with substrate ENLYFDS | area with substrate ENLYFES | area with substrate ENLYFFS | area with substrate ENLYFGS | area with substrate ENLYFHS | area with substrate ENLYFIS | area with substrate ENLYFKS | area with substrate ENLYFLS | area with substrate ENLYFMS | area with substrate ENLYFNS | area with substrate ENLYFPS | area with substrate ENLYFRS | area with substrate ENLYFSS | area with substrate ENLYFTS | area with substrate ENLYFVS | area with substrate ENLYFWS | area with substrate ENLYFYS |
| --- | --- | --- | --- | --- | --- | --- | --- | --- | --- | --- | --- | --- | --- | --- | --- | --- | --- | --- | --- |
| P14M | 0.0709 | 0.0844 | 0.0609 | 0.0552 | 0.0704 | 0.0597 | 0.0591 | 0.0617 | 0.0632 | 0.0521 | 0.0569 | 0.0642 | 0.059 | 0.0499 | 0.0569 | 0.0657 | 0.0472 | 0.0539 | – |
| P14T | 0.0547 | 0.0645 | – | 0.0684 | 0.063 | – | 0.0613 | 0.0569 | 0.0609 | 0.0621 | 0.0667 | 0.0613 | 0.0623 | 0.065 | 0.0633 | 0.0596 | 0.0563 | 0.0619 | – |
| P14A | 0.0557 | – | 0.0718 | 0.0599 | 0.0603 | 0.0607 | 0.0679 | 0.0593 | 0.0676 | – | 0.0595 | 0.0595 | 0.087 | – | – | 0.0697 | 0.0576 | 0.0576 | 0.0649 |
| E3Q | 0.0642 | 0.0622 | – | 0.0671 | 0.0636 | 0.061 | – | 0.0626 | 0.064 | – | 0.0775 | 0.0599 | – | – | – | 0.0396 | 0.0883 | 0.0499 | 0.062 |
| E3H | 0.0593 | 0.0594 | 0.056 | 0.0655 | 0.0625 | – | 0.0668 | 0.0528 | – | – | 0.073 | 0.0645 | 0.0604 | 0.0625 | – | 0.0622 | 0.0544 | 0.0488 | 0.0548 |
| S4C | 0.0643 | 0.0629 | 0.0734 | 0.0895 | 0.0635 | – | 0.0694 | 0.0654 | 0.0981 | – | 0.0966 | 0.0756 | 0.0687 | 0.0602 | 0.0152 | 0.0597 | – | 0.0663 | 0.0607 |
| S4H | 0.0589 | 0.0532 | 0.0394 | 0.0654 | 0.0557 | – | 0.0528 | – | 0.0626 | 0.028 | 0.0695 | 0.0754 | 0.0435 | 0.071 | 0.0468 | 0.0518 | 0.0562 | 0.033 | 0.0535 |
| P9L | 0.0446 | 0.0693 | 0.0517 | 0.0567 | 0.0595 | – | – | 0.0542 | 0.0581 | – | 0.074 | 0.0774 | 0.053 | 0.0501 | – | – | 0.0487 | 0.0499 | 0.0792 |
| P9F | 0.0588 | 0.0545 | – | 0.0588 | 0.0782 | – | 0.059 | 0.0653 | – | 0.061 | 0.0705 | 0.0646 | 0.0596 | – | 0.055 | 0.0631 | 0.0611 | 0.0545 | 0.0617 |
| C20Q | 0.041 | – | 0.0434 | 0.0499 | 0.0465 | 0.0528 | 0.0442 | – | – | – | – | – | 0.0569 | 0.0479 | 0.0481 | 0.0463 | – | – | 0.049 |
| C20N | 0.0442 | 0.0573 | 0.0473 | 0.0457 | 0.0602 | 0.0702 | 0.0525 | 0.0468 | 0.0434 | 0.0483 | 0.0521 | – | 0.057 | – | 0.0543 | 0.0585 | 0.0441 | 0.0382 | 0.0391 |
| I19Y | 0.0514 | 0.0545 | 0.0478 | 0.0168 | 0.059 | 0.0584 | – | 0.0544 | 0.0549 | – | 0.0517 | 0.0356 | 0.0579 | 0.0646 | – | 0.0389 | 0.0457 | 0.0728 | – |
